Test results reported in patent US20220315654A1 (NOVIMMUNE, published 2022).

Experiments:
[1] = target: T1, recombinant human PD-L1 soluble protein (biotinylated) (human, UniProt Q9NZQ7 partial chain, biotinylated); assay: BLI (OctetRED96), biotinylated PD-L1 on streptavidin biosensors, bsAb in solution, 1:1 global fit, 30 °C
T1 construct: Bought soluble protein; also called hPD-L1

[2] = target: T2, human PD-L1 on cells (human PD-L1-transfected CHO cells; IFNg-induced HT-1080 tumor cells) (human, UniProt Q9NZQ7); assay: inhibition of human PD-1-moFc binding to human PD-L1-transfected CHO cells, CellInsight CX5
T2 construct: whole, on cells; CHO transfectants are negative for human CD47; HT-1080 cells also carry CD47; also called hPD-L1-transfected CHO cells; PD-L1+CD47+ HT-1080

[3] = target: T3, human CD47 on cells (Raji, Nalm-6, HT-1080 tumor cells, human red blood cells) (human, UniProt Q08722); assay: flow cytometry on human red blood cells (CD47+, PD-L1-), detection with AF647 anti-human Fc F(ab')2
T3 construct: whole, on cells; Raji, Nalm-6 and red blood cells carry no or very little PD-L1; HT-1080 carries both targets; also called IAP

| Binder | Kd [1] [nM] | IC50 [2] [nM] | binding result [3] |
| --- | --- | --- | --- |
| K2×S28 CD47×PD-L1 bispecific antibody (bispecific antibody, human IgG1, kappa, lambda, also called K2xS28; S28 bsAb) heavy: [no letters for about 120 residues][no letters for about 100 residues][no letters for human IgG1 Fc] light 1: DIQMTQSPSSLSASVGDRVTITCRASQSISSYLNWYQQKPGKAPKLLIYAASSLQSGVPSRFSGSGSGTDFTLTISSLQPEDFATYYCQQMHPRAPKTFGQGTKVEIKRTVAAPSVFIFPPSDEQLKSGTASVVCLLNNFYPREAKVQWKVDNALQSGNSQESVTEQDSKDSTYSLSSTLTLSKADYEKHKVYACEVTHQGLSSPVTKSFNRGEC light 2: QSVLTQPPSASGTPGQRVTISCSGSSSNIAHKPVNWYQQLPGTAPKLLIYHDNSRPSGVPDRFSGSKSGTSASLAISGLQSEDEADYYCAAWDFATWPATEVFGGGTKLTVLGQPKAAPSVTLFPPSSEELQANKATLVCLISDFYPGAVTVAWKADSSPVKAGVETTTPSKQSNNKYAASSYLSLTPEQWKSHRSYSCQVTHEGSTVEKTVAPTECS | 0.7 | 0.12 |  |
| K2×S100 CD47×PD-L1 bispecific antibody (bispecific antibody, human IgG1, kappa, lambda, also called K2xS100; K2×S100 bsAb) heavy: [no letters for about 120 residues][no letters for about 100 residues][no letters for human IgG1 Fc] light 1: DIQMTQSPSSLSASVGDRVTITCRASQSISSYLNWYQQKPGKAPKLLIYAASSLQSGVPSRFSGSGSGTDFTLTISSLQPEDFATYYCQQMHPRAPKTFGQGTKVEIKRTVAAPSVFIFPPSDEQLKSGTASVVCLLNNFYPREAKVQWKVDNALQSGNSQESVTEQDSKDSTYSLSSTLTLSKADYEKHKVYACEVTHQGLSSPVTKSFNRGEC light 2: QSVLTQPPSASGTPGQRVTISCSGSSSNIENKPVNWYQQLPGTAPKLLIYHDTTRPSGVPDRFSGSKSGTSASLAISGLQSEDEADYYCAAWDFATWPATEVFGGGTKLTVLGQPKAAPSVTLFPPSSEELQANKATLVCLISDFYPGAVTVAWKADSSPVKAGVETTTPSKQSNNKYAASSYLSLTPEQWKSHRSYSCQVTHEGSTVEKTVAPTECS | 0.31 |  | binds |
| K2×S8 CD47×PD-L1 bispecific antibody (bispecific antibody, human IgG1, kappa, lambda, one CD47 arm (K2) and one PD-L1 arm (S8); also called K2xS8; K2×S8 bsAb) heavy: [no letters for about 120 residues][no letters for about 100 residues][no letters for human IgG1 Fc] light 1: DIQMTQSPSSLSASVGDRVTITCRASQSISSYLNWYQQKPGKAPKLLIYAASSLQSGVPSRFSGSGSGTDFTLTISSLQPEDFATYYCQQMHPRAPKTFGQGTKVEIKRTVAAPSVFIFPPSDEQLKSGTASVVCLLNNFYPREAKVQWKVDNALQSGNSQESVTEQDSKDSTYSLSSTLTLSKADYEKHKVYACEVTHQGLSSPVTKSFNRGEC light 2: QSVLTQPPSASGTPGQRVTISCSGSSSNIRDSFVNWYQQLPGTAPKLLIYATNIRPSGVPDRFSGSKSGTSASLAISGLQSEDEADYYCAAWHPYYTLFGGGTKLTVLGQPKAAPSVTLFPPSSEELQANKATLVCLISDFYPGAVTVAWKADSSPVKAGVETTTPSKQSNNKYAASSYLSLTPEQWKSHRSYSCQVTHEGSTVEKTVAPTECS | 1.23 |  |  |
| K2×S37 CD47×PD-L1 bispecific antibody (bispecific antibody, human IgG1, kappa, lambda, also called K2xS37; S37 bsAb) heavy: [no letters for about 120 residues][no letters for about 100 residues][no letters for human IgG1 Fc] light 1: DIQMTQSPSSLSASVGDRVTITCRASQSISSYLNWYQQKPGKAPKLLIYAASSLQSGVPSRFSGSGSGTDFTLTISSLQPEDFATYYCQQMHPRAPKTFGQGTKVEIKRTVAAPSVFIFPPSDEQLKSGTASVVCLLNNFYPREAKVQWKVDNALQSGNSQESVTEQDSKDSTYSLSSTLTLSKADYEKHKVYACEVTHQGLSSPVTKSFNRGEC light 2: QSVLTQPPSASGTPGQRVTISCSGSSSNIRDSFVNWYQQLPGTAPKLLIYATNIRPSGVPDRFSGSKSGTSASLAISGLQSEDEADYYCASWWPFGTVFGGGTKLTVLGQPKAAPSVTLFPPSSEELQANKATLVCLISDFYPGAVTVAWKADSSPVKAGVETTTPSKQSNNKYAASSYLSLTPEQWKSHRSYSCQVTHEGSTVEKTVAPTECS |  | 0.14 |  |
